AUC and IC50 data for seven cell lines are collected here from the supplement of paper PMC4967469.

IC50 is the fitted dose that halves viability relative to control wells, and lower means more sensitive; where the fit passes the top or lowest dose, that dose stands as a limit. AUC is the area under the same curve over the 256-fold range up to the top dose, as a fraction; it is 1 without any effect and falls as sensitivity rises. For part of these data: A top dose marked as inferred comes from the curve model; the source does not state it. For part of these data: An entry number marks a drug with two screens in the source, which often give different values.

Assay in all cases: Viability of human cancer cell lines after 72 h of drug (GDSC screen)
Compound in assay [1]: Nc1ccn([C@@H]2O[C@H](CO)[C@@H](O)C2(F)F)c(=O)n1 [Gemcitabine]
Particulars: top dose 1.024 µM. On the procedure:
(§1)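 Human cancer cell lines in 384-well plates, medium with 10% serum, drug for 72 h over a 256-fold dose range (nine 2-fold or five 4-fold steps up to the top dose). Adherent lines were fixed and stained with the nucleic acid dye Syto60, suspension lines read with resazurin; signal relative to control wells, capped at 0 and 100%. One two-parameter sigmoid per drug and line, fitted in a mixed model over all curves with the slope shared within a line.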

Compound in assay [2]: CC(O)(CS(=O)(=O)c1ccc(F)cc1)C(=O)Nc1ccc(C#N)c(C(F)(F)F)c1 [Bicalutamide]
Particulars: top dose inferred. On the procedure: as §1

Compound in assay [3]: O=S(=O)(c1ccccc1)N(CC(F)(F)F)c1ccc(C(O)(C(F)(F)F)C(F)(F)F)cc1 [T0901317]
Conditions: top dose 10.24 µM; top dose inferred. On the procedure:
as §1

Compound in assay [4]: Cc1cn(-c2cc(NC(=O)c3ccc(C)c(Nc4nccc(-c5cccnc5)n4)c3)cc(C(F)(F)F)c2)cn1 [Nilotinib]
Particulars: top dose 2 µM. On the procedure:
as §1

Compound in assay [5]: CCNC(=O)c1noc(-c2cc(C(C)C)c(O)cc2O)c1-c1ccc(CN2CCOCC2)cc1 [AUY922]
Particulars: top dose 0.256 µM; top dose inferred. As for the experimental part:
as §1

Compound in assay [6]: Cc1ccc(Nc2cc(-c3cccc(N4C(=O)c5ccccc5C4=O)c3)ncn2)cc1NS(C)(=O)=O [KIN001-270]
Particulars: top dose 20 µM; top dose inferred. On the procedure:
as §1

Compound in assay [7]: S=C(NCc1ccc2c(c1)OCO2)N1CCN(c2ncnc3c2oc2ccccc23)CC1 [MP470]
Conditions: top dose 20 µM; top dose inferred. As for the experimental part:
as §1

Compound in assay [8]: C/C(O)=C(\C#N)C(=O)Nc1cc(Br)ccc1Br [LFM-A13]
Conditions: top dose 16 µM; top dose inferred. On the procedure: as §1

Compound in assay [9]: CC(C)c1ccccc1Cc1cc(C(=O)Nc2ccc(S(=O)(=O)c3ccccc3C(C)(C)C)cc2)c(O)c(O)c1O [TW-37]
Conditions: top dose 5 µM. As for the experimental part: as §1

[10] abbreviates: top dose 1.024 µM, screen: GDSC drug entry 150.
Where [11] appears, read: top dose 10 µM, screen: GDSC drug entry 1502.

For “NCI-H2291 (lung adenocarcinoma, adherent)”, the AUC in assay [1] came out at 0.983; in [2] (setting [10]), 0.982; in assay [2] (setting [11]) it was 0.973; in assay [3] it was 0.98; in assay [4], 0.983; in assay [5] it was 0.984. The AUC in [6] was determined as 0.965; in assay [7], 0.977; in assay [8], 0.983; in [9], 0.906. Further, the IC50 in [1] was above 1020 nM; in assay [2] (setting [10]) it was above 1020 nM; in assay [2] (setting [11]), above 10000 nM; in [3] it was above 10200 nM; in [4] it was above 2000 nM; in [5] it was above 256 nM. Further, the IC50 was above 20000 nM in [6], above 20000 nM in assay [7], above 16000 nM in [8] and above 5000 nM in assay [9].
As to KYSE-220 (oesophagus, adherent), the AUC amounted to 0.301 in [1]; 0.986 in [2] (setting [10]); 0.982 in [2] (setting [11]); 0.986 in [3]; 0.985 in assay [4]; 0.642 in [5]. Moreover, the AUC was found to be 0.983 in assay [6], 0.98 in assay [7], 0.968 in assay [8] and 0.448 in assay [9]. Further, the IC50 in [1] was 17 nM; in [2] (setting [10]), above 1020 nM; in assay [2] (setting [11]) it was above 10000 nM; in [3], above 10200 nM; in [4] it was above 2000 nM; in assay [5], 40.5 nM. Further, the IC50 in [6] is above 20000 nM; in [7], above 20000 nM; in assay [8], above 16000 nM; in assay [9], 224 nM.
On to HN (head and neck, adherent), for which the AUC amounted to 0.498 in [1]; 0.987 in assay [2] (setting [10]); 0.968 in [2] (setting [11]); 0.988 in [3]; 0.976 in assay [4]; 0.637 in [5]. For the same cell line, the AUC in [6] was determined as 0.988; in assay [7], 0.529; in assay [8], 0.988; in assay [9], 0.486. The IC50 in assay [1] is 63.1 nM; in assay [2] (setting [10]), above 1020 nM; in [2] (setting [11]), above 10000 nM; in assay [3] it was above 10200 nM; in assay [4], above 2000 nM; in assay [5], 37.3 nM. Also, the IC50 in [6] was above 20000 nM; in assay [7], 1490 nM; in [8], above 16000 nM; in assay [9], 287 nM.
In the case of 8305C (thyroid, adherent), the AUC came out at 0.335 in [1]; 0.971 in assay [2] (setting [10]); 0.966 in assay [2] (setting [11]); 0.982 in assay [3]; 0.982 in assay [4]; 0.449 in assay [5]. The AUC is 0.981 in [6], 0.979 in [7], 0.968 in assay [8] and 0.796 in assay [9]. Moreover, the IC50 in assay [1] was 19.2 nM; in assay [2] (setting [10]) it was above 1020 nM; in [2] (setting [11]) it was above 10000 nM; in assay [3], above 10200 nM; in [4], above 2000 nM; in [5], 11.1 nM. Moreover, the IC50 in assay [6] is above 20000 nM; in [7], above 20000 nM; in assay [8], above 16000 nM; in [9] it was 3200 nM.
For the cell line IHH-4 (thyroid, semi-adherent), the AUC in assay [1] came out at 0.027; in assay [2] (setting [10]) it was 0.978; in assay [2] (setting [11]), 0.992; in assay [3], 0.961; in assay [4], 0.984; in assay [5], 0.367. Moreover, the AUC in [6] was determined as 0.96; in assay [7], 0.959; in [8] it was 0.977; in assay [9], 0.234. The IC50 in assay [1] is below 4 nM; in [2] (setting [10]), above 1020 nM; in [2] (setting [11]) it was above 10000 nM; in assay [3] it was above 10200 nM; in [4], above 2000 nM; in assay [5], 7.43 nM. The IC50 in [6] was above 20000 nM; in assay [7] it was above 20000 nM; in [8], above 16000 nM; in [9] it was 64.9 nM.
For OSC-20 (head and neck, adherent), the AUC in assay [1] turned out to be 0.234; in [2] (setting [10]) it was 0.977; in [2] (setting [11]), 0.927; in assay [3], 0.975; in assay [4] it was 0.969; in assay [5] it was 0.488. The AUC was determined as 0.975 in [6], 0.948 in [7], 0.971 in assay [8] and 0.673 in assay [9]. Moreover, the IC50 in assay [1] was 9.13 nM; in assay [2] (setting [10]), above 1020 nM; in assay [2] (setting [11]), above 10000 nM; in assay [3] it was above 10200 nM; in [4], above 2000 nM; in assay [5], 14.8 nM. Moreover, the IC50 in [6] was above 20000 nM; in assay [7] it was above 20000 nM; in [8] it was above 16000 nM; in [9], 1050 nM.
For TMK-1 (stomach, adherent), the AUC in assay [1] was 0.696; in assay [2] (setting [10]), 0.986; in assay [3] it was 0.98; in assay [4] it was 0.986; in [5], 0.691; in [6] it was 0.983. Besides, the AUC in assay [7] came to 0.965; in assay [8], 0.949; in assay [9], 0.504. Besides, the IC50 in assay [1] is 235 nM; in assay [2] (setting [10]), above 1020 nM; in assay [3], above 10200 nM; in [4], above 2000 nM; in assay [5] it was 57.1 nM; in assay [6], above 20000 nM. For the same cell line, the figures for the IC50 in assay [7], in assay [8] and in [9] were above 20000 nM, above 16000 nM and 320 nM, respectively.

One may read the IC50 as the point on the concentration scale where inhibition reaches its midpoint.
